Here are results for 153 variants from a collection of fitness landscapes (doi:10.1016/j.celrep.2020.107928).

In all, about 81,000 sequences were measured (“one-hybrid fitness for binding parS DNA”: median about -0.17, highest 2% from about 0.51 on). This is one part of the list.

Sequences and labels used below:
B1: Caulobacter ParB omega fusion; a variant is named by its letters at X, in order, B8GW30 (parent)
chain: MESVVVGEPGMSEGRRGLGRGLSALLGEVDAAPAQAPGEQLGGSREAPIEILQRNPDQPRRTFREEDLEDLSNSIREKGVLQPILVRPSPDTAGEYQIVAGERAWRAAQRAGLKTVPIMVRELDDLAVLEIGIIENVQRADLNVLEEALSYKVLMEKFERTQENIAQTIGKSXSHVANXMRLLXLPDEVQSYLVSGELTAXHARAIAAAADPVALAKQIIEGGLSVRETEALARKAPNLSAGKSKGGRPPRVKDTDTQALESDLSSVLGLDVSIDHRGSTGTLTITYATLEQLDDLCNRLTRGI

Variants of B1 are the subject of this experiment. Nature of the experiment: one-hybrid fitness for binding parS DNA (scaled: cognate 1, non-cognate 0); higher = stronger binding. The following applies: with parS DNA site. In a few lines:
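Caulobacter ParB libraries with four specificity codons randomised were screened by bacterial one-hybrid selection in the E. coli USO strain, using a HIS3 reporter whose site lies 19 bp from the promoter. Selection ran for 48 hours at 37°C on M9 lacking histidine, with 0.1 mM IPTG and 5 mM 3-AT. Plasmids were Illumina-sequenced before and after selection, three replicate libraries were pooled, and variants with under 10 reads were dropped. Fitness is the log change in each variant's read ratio to wild type, rescaled against the cognate and non-cognate sites.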
Turning to PINF, the “one-hybrid fitness for binding parS DNA” value was at most 0.2.

As for TWTY, the “one-hybrid fitness for binding parS DNA” value is at most 0.2.

As to LGAS, the “one-hybrid fitness for binding parS DNA” value was at most 0.2.

For the variant RTGV, the “one-hybrid fitness for binding parS DNA” value is at most 0.2.

Regarding QWVI, the “one-hybrid fitness for binding parS DNA” value was at most 0.2.

For the variant PEHL, the “one-hybrid fitness for binding parS DNA” value is at most 0.2.

In the case of KEDR, the “one-hybrid fitness for binding parS DNA” value is at most 0.2.

In the case of NAMR, the “one-hybrid fitness for binding parS DNA” value is at most 0.2.

SKPR: the “one-hybrid fitness for binding parS DNA” value is at most 0.2.

In the case of DEGR, the “one-hybrid fitness for binding parS DNA” value was at most 0.2.

Turning to WMPH, the “one-hybrid fitness for binding parS DNA” value was at most 0.2.

With WPPR, the “one-hybrid fitness for binding parS DNA” value is at most 0.2.

For WKLR, the “one-hybrid fitness for binding parS DNA” value is at most 0.2.

Take CAAW: the “one-hybrid fitness for binding parS DNA” value is at most 0.2.

With DKLR, the “one-hybrid fitness for binding parS DNA” value is at most 0.2.

In the case of AMMR, the “one-hybrid fitness for binding parS DNA” value was at most 0.2.

With QACT, the “one-hybrid fitness for binding parS DNA” value was at most 0.2.

With YFYS, the “one-hybrid fitness for binding parS DNA” value is at most 0.2.

For RHSL, the “one-hybrid fitness for binding parS DNA” value was at most 0.2.

Turning to TEQA, the “one-hybrid fitness for binding parS DNA” value was at most 0.2.

Regarding SAYC, the “one-hybrid fitness for binding parS DNA” value is at most 0.2.

Turning to INWI, the “one-hybrid fitness for binding parS DNA” value is at most 0.2.

YVHD: the “one-hybrid fitness for binding parS DNA” value was at most 0.2.

On to PMQR, for which the “one-hybrid fitness for binding parS DNA” value is at most 0.2.

On to RCLK, for which the “one-hybrid fitness for binding parS DNA” value was 0.241.

For the variant DTQG, the “one-hybrid fitness for binding parS DNA” value is at most 0.2.

As for TQGT, the “one-hybrid fitness for binding parS DNA” value is at most 0.2.

Take KTFR: the “one-hybrid fitness for binding parS DNA” value was at most 0.2.

Take KHVC: the “one-hybrid fitness for binding parS DNA” value was at most 0.2.

Regarding QHGA, the “one-hybrid fitness for binding parS DNA” value is at most 0.2.

Turning to SFML, the “one-hybrid fitness for binding parS DNA” value is at most 0.2.

For HTGN, the “one-hybrid fitness for binding parS DNA” value is at most 0.2.

For NERC, the “one-hybrid fitness for binding parS DNA” value was at most 0.2.

On to ATVD, for which the “one-hybrid fitness for binding parS DNA” value is at most 0.2.

For the variant ERVR, the “one-hybrid fitness for binding parS DNA” value is at most 0.2.

Turning to MSES, the “one-hybrid fitness for binding parS DNA” value is at most 0.2.

On to DTTP, for which the “one-hybrid fitness for binding parS DNA” value is at most 0.2.

HSEM: the “one-hybrid fitness for binding parS DNA” value was at most 0.2.

In the case of DSAP, the “one-hybrid fitness for binding parS DNA” value is at most 0.2.

Turning to QRKL, the “one-hybrid fitness for binding parS DNA” value was at most 0.2.

With QTEF, the “one-hybrid fitness for binding parS DNA” value was at most 0.2.

Regarding LQAK, the “one-hybrid fitness for binding parS DNA” value is at most 0.2.

Take CARI: the “one-hybrid fitness for binding parS DNA” value is at most 0.2.

EHKE: the “one-hybrid fitness for binding parS DNA” value was at most 0.2.

Take QAKC: the “one-hybrid fitness for binding parS DNA” value is at most 0.2.

With QRVL, the “one-hybrid fitness for binding parS DNA” value was at most 0.2.

Take CMFS: the “one-hybrid fitness for binding parS DNA” value is at most 0.2.

As for ITQS, the “one-hybrid fitness for binding parS DNA” value is at most 0.2.

On to LPRG, for which the “one-hybrid fitness for binding parS DNA” value was at most 0.2.

Take RCSY: the “one-hybrid fitness for binding parS DNA” value was 0.453.

For the variant SQCV, the “one-hybrid fitness for binding parS DNA” value was at most 0.2.

In the case of DKMG, the “one-hybrid fitness for binding parS DNA” value is at most 0.2.

Take SQPT: the “one-hybrid fitness for binding parS DNA” value was at most 0.2.

Consider DCVG, for which the “one-hybrid fitness for binding parS DNA” value is at most 0.2.

For the variant PESS, the “one-hybrid fitness for binding parS DNA” value was at most 0.2.

For the variant WRNA, the “one-hybrid fitness for binding parS DNA” value is at most 0.2.

In the case of CTMC, the “one-hybrid fitness for binding parS DNA” value was at most 0.2.

Turning to TPVR, the “one-hybrid fitness for binding parS DNA” value was at most 0.2.

As for KFPV, the “one-hybrid fitness for binding parS DNA” value was at most 0.2.

KSRA: the “one-hybrid fitness for binding parS DNA” value is at most 0.2.

Take QKLL: the “one-hybrid fitness for binding parS DNA” value was at most 0.2.

Consider RNIF, for which the “one-hybrid fitness for binding parS DNA” value is at most 0.2.

In the case of LRLR, the “one-hybrid fitness for binding parS DNA” value was at most 0.2.

For the variant RRWE, the “one-hybrid fitness for binding parS DNA” value was at most 0.2.

Take NEYN: the “one-hybrid fitness for binding parS DNA” value was at most 0.2.

For the variant RIFG, the “one-hybrid fitness for binding parS DNA” value came out at 0.978.

For the variant PTFC, the “one-hybrid fitness for binding parS DNA” value is at most 0.2.

Consider QLQF, for which the “one-hybrid fitness for binding parS DNA” value was at most 0.2.

For the variant SRPK, the “one-hybrid fitness for binding parS DNA” value is at most 0.2.

For VHAL, the “one-hybrid fitness for binding parS DNA” value is at most 0.2.

Take ELML: the “one-hybrid fitness for binding parS DNA” value was at most 0.2.

Regarding HGRV, the “one-hybrid fitness for binding parS DNA” value was at most 0.2.

As for PMPC, the “one-hybrid fitness for binding parS DNA” value was at most 0.2.

Regarding THCC, the “one-hybrid fitness for binding parS DNA” value was at most 0.2.

For TGLD, the “one-hybrid fitness for binding parS DNA” value was at most 0.2.

In the case of QFGC, the “one-hybrid fitness for binding parS DNA” value was at most 0.2.

For the variant SRKG, the “one-hybrid fitness for binding parS DNA” value is at most 0.2.

For the variant MLQG, the “one-hybrid fitness for binding parS DNA” value is at most 0.2.

With GRKT, the “one-hybrid fitness for binding parS DNA” value was at most 0.2.

With CGSC, the “one-hybrid fitness for binding parS DNA” value is at most 0.2.

With RAVM, the “one-hybrid fitness for binding parS DNA” value came out at 0.25.

With GHKA, the “one-hybrid fitness for binding parS DNA” value was at most 0.2.

Turning to YEPM, the “one-hybrid fitness for binding parS DNA” value is at most 0.2.

Take GVCS: the “one-hybrid fitness for binding parS DNA” value was at most 0.2.

Consider TMLK, for which the “one-hybrid fitness for binding parS DNA” value was at most 0.2.

With AKHY, the “one-hybrid fitness for binding parS DNA” value is at most 0.2.

For QSYY, the “one-hybrid fitness for binding parS DNA” value was at most 0.2.

On to LMMS, for which the “one-hybrid fitness for binding parS DNA” value was at most 0.2.

As for QFKL, the “one-hybrid fitness for binding parS DNA” value was at most 0.2.

With HVRK, the “one-hybrid fitness for binding parS DNA” value is at most 0.2.

As for WITR, the “one-hybrid fitness for binding parS DNA” value was at most 0.2.

For QDHV, the “one-hybrid fitness for binding parS DNA” value was at most 0.2.

For the variant CPAE, the “one-hybrid fitness for binding parS DNA” value is at most 0.2.

As to LMEF, the “one-hybrid fitness for binding parS DNA” value was at most 0.2.

With RLTG, the “one-hybrid fitness for binding parS DNA” value is 1.03.

With RLFI, the “one-hybrid fitness for binding parS DNA” value was at most 0.2.

In the case of WHYG, the “one-hybrid fitness for binding parS DNA” value is at most 0.2.

As for LFPR, the “one-hybrid fitness for binding parS DNA” value was at most 0.2.

As for YTFA, the “one-hybrid fitness for binding parS DNA” value is at most 0.2.

In the case of PNSG, the “one-hybrid fitness for binding parS DNA” value was at most 0.2.

On to PPAT, for which the “one-hybrid fitness for binding parS DNA” value is at most 0.2.

Turning to NCAA, the “one-hybrid fitness for binding parS DNA” value was at most 0.2.

In the case of PYKG, the “one-hybrid fitness for binding parS DNA” value is at most 0.2.

For the variant RGRS, the “one-hybrid fitness for binding parS DNA” value came to 0.932.

As to HQPM, the “one-hybrid fitness for binding parS DNA” value was at most 0.2.

Consider FYAL, for which the “one-hybrid fitness for binding parS DNA” value is at most 0.2.

As for SDLL, the “one-hybrid fitness for binding parS DNA” value is at most 0.2.

As to QVNV, the “one-hybrid fitness for binding parS DNA” value is at most 0.2.

Take AYAC: the “one-hybrid fitness for binding parS DNA” value is at most 0.2.

For the variant GMSC, the “one-hybrid fitness for binding parS DNA” value was at most 0.2.

As to RNCT, the “one-hybrid fitness for binding parS DNA” value was 0.612.

On to DGTC, for which the “one-hybrid fitness for binding parS DNA” value was at most 0.2.

Turning to TLGD, the “one-hybrid fitness for binding parS DNA” value was at most 0.2.

Turning to GGRL, the “one-hybrid fitness for binding parS DNA” value was at most 0.2.

As to TWYF, the “one-hybrid fitness for binding parS DNA” value was at most 0.2.

On to QTHN, for which the “one-hybrid fitness for binding parS DNA” value was at most 0.2.

For the variant HPFG, the “one-hybrid fitness for binding parS DNA” value is at most 0.2.

For the variant HSNS, the “one-hybrid fitness for binding parS DNA” value was at most 0.2.

On to WTDK, for which the “one-hybrid fitness for binding parS DNA” value was at most 0.2.

For the variant RCEP, the “one-hybrid fitness for binding parS DNA” value was at most 0.2.

In the case of SVVV, the “one-hybrid fitness for binding parS DNA” value is at most 0.2.

For TLIL, the “one-hybrid fitness for binding parS DNA” value was at most 0.2.

As to THRP, the “one-hybrid fitness for binding parS DNA” value was at most 0.2.

As to KTKA, the “one-hybrid fitness for binding parS DNA” value was at most 0.2.

For the variant HPLY, the “one-hybrid fitness for binding parS DNA” value is at most 0.2.

As to ATRL, the “one-hybrid fitness for binding parS DNA” value is at most 0.2.

Consider KVHG, for which the “one-hybrid fitness for binding parS DNA” value was at most 0.2.

Regarding QSPR, the “one-hybrid fitness for binding parS DNA” value was at most 0.2.

On to RCCD, for which the “one-hybrid fitness for binding parS DNA” value was at most 0.2.

As for REKS, the “one-hybrid fitness for binding parS DNA” value turned out to be 0.66.

As to THHK, the “one-hybrid fitness for binding parS DNA” value is at most 0.2.

As for MDQS, the “one-hybrid fitness for binding parS DNA” value is at most 0.2.

For TKMG, the “one-hybrid fitness for binding parS DNA” value was at most 0.2.

Consider SRKY, for which the “one-hybrid fitness for binding parS DNA” value is at most 0.2.

Regarding CVRA, the “one-hybrid fitness for binding parS DNA” value is at most 0.2.

For the variant CVDQ, the “one-hybrid fitness for binding parS DNA” value is at most 0.2.

For the variant KDTG, the “one-hybrid fitness for binding parS DNA” value was at most 0.2.

In the case of QYQT, the “one-hybrid fitness for binding parS DNA” value was 0.26.

Take GKHY: the “one-hybrid fitness for binding parS DNA” value is at most 0.2.

With SYRW, the “one-hybrid fitness for binding parS DNA” value is at most 0.2.

As for RNKF, the “one-hybrid fitness for binding parS DNA” value stood at 0.242.

Turning to YMWS, the “one-hybrid fitness for binding parS DNA” value is at most 0.2.

On to MCPA, for which the “one-hybrid fitness for binding parS DNA” value is at most 0.2.

As for PSVR, the “one-hybrid fitness for binding parS DNA” value was at most 0.2.

As to CVSN, the “one-hybrid fitness for binding parS DNA” value is at most 0.2.

For the variant RCTL, the “one-hybrid fitness for binding parS DNA” value was at most 0.2.

As for CWNE, the “one-hybrid fitness for binding parS DNA” value was at most 0.2.

Turning to EIAH, the “one-hybrid fitness for binding parS DNA” value was at most 0.2.

Turning to PKVG, the “one-hybrid fitness for binding parS DNA” value is at most 0.2.

For the variant KRPL, the “one-hybrid fitness for binding parS DNA” value is at most 0.2.

For IKIG, the “one-hybrid fitness for binding parS DNA” value is at most 0.2.

Consider YAIR, for which the “one-hybrid fitness for binding parS DNA” value is at most 0.2.

In the case of NDHF, the “one-hybrid fitness for binding parS DNA” value was at most 0.2.
